# Source: PMC10726135
# Some of the results follow. At the low end of the ranking the order means little. Measured with an extract: partners may take part in the binding.
# Biological target: T1, HNF4alpha8 (COS-7 nuclear extract) (UniProt P41235-5)
# T1 sequence: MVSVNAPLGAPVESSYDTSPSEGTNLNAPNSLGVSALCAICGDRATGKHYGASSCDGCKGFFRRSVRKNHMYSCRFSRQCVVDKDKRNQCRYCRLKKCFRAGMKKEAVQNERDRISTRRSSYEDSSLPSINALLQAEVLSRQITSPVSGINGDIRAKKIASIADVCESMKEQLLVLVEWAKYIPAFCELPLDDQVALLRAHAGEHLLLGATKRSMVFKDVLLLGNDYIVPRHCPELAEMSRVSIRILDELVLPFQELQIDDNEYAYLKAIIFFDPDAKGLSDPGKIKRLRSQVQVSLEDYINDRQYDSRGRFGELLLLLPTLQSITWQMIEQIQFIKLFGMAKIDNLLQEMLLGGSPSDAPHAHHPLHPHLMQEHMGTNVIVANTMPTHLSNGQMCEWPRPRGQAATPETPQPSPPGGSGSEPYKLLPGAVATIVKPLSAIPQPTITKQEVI
# Experiment: protein-binding microarray
# Conditions: COS-7 nuclear extract on double-stranded Agilent 4x180k PBM; binding buffer, salt, pH and temperature not given; high values mean tight binding; double strand, one strand shown; sequences stand for … in …GCCTAGGGAGATTAGAGTATCGGTCGA
row,Sequence,binding signal (log2 normalized intensity)
1,GTAGGGCAGAGGCCAGTTTGATCACAAGAC,-0.285
2,CACTCACAGGACTGCTGTGAGGATTGATTA,-1.16
3,CCTGAAAACTGGAGGCCGCGACAAGCGTCG,-1.32
4,CCTCAGTCCATCCTGTCTCACCAGACCAAG,-1.31
5,ACTTTGGAACTCAGTTAATGTACAGAGTAT,0.96
6,CTGCACCATTCTTGTCCTTTCGGTGTGTGC,2.12
7,CCTGTAGCTTCCGAAAGTATTTTTCTAGTC,0.47
8,ATCTCACTCTTTGTTATTTATTGGCCAGTA,2.01
9,GTGTGAATCTCCAACAAGGCAGGAGATTCC,-1.13
10,GCAGGAAGGAGCCTGCTTTGCTGAGGAACT,-1.32
11,ACTAGGCAGCTTGGGAGCAATTTAGCAGCA,-1.26
12,CTCCCTAGAAGAGTGAACCTAGTGGCTGTG,-1.23
13,GGGGATTGTGTAACATCTAAGATTGGCCCT,1.84
14,GAGACACAAGGAAAAATGACCATCTCGTCA,-1.42
15,GTTACATCATAGTGTTTGCCTTATTTGAAC,2.18
16,AGAGTGAGCAGCACTTTTGGAGTTTGACCT,8.51
17,GATCTTTGGGCCATATTGACTAAACATTCT,0.59
18,TAGATATCGCTCCAAGAGCCAACAGGAATT,-1.28
19,GGTGGAGAAAGGCAGAAGGTTCCAGGGAAC,-1.45
20,TCCAGCATTCTTTTCCCCATACCAGGCAGT,2.54
21,GTGTATGGGTATAGGCGCGCGTGTGTGTGT,2.15
22,AGTGACATGCTTGCTTTTCAAACAGTGTGC,0.723
23,TTACTGACTCCACAGTGGGGCAGATCACAA,-1.3
24,TTGGCTCTTATGTCCCTCCTGACCTTTGGA,9.16

row,Sequence,binding signal (log2 normalized intensity)
1,AAAAGGCAGTCCTTAGATCCACGGAGAATG,-1.18
2,TGTCAGGGAAGGCTAGCATTCCTGCACACC,-1.34
3,AATCTGTGACTGAGCAGAGATTTGACCTAA,3.24
4,GGACAAACTGAGGAGGACATACTCCTACCA,-1.35
5,TGGTAGTTGCTGAAGGGCAGGGTTGGCTGT,0.177
6,ACTCATTTCACATTGGTGCCCTTTGCCTTT,4.99
7,TGGTTAGGTATTTTAAGTCACCAGATGAGA,0.826
8,ACACAAACTCTGGAGTTTGCCCTTCACAAA,4.33
9,AGAAGAAAGGGGCTAGGGCAAAGATCAAAC,3.37
10,AAGGACAAAGGTCATGTTTTCAAACAATGA,5.49
11,CTGTGTCAGCAGAAGGCCCCAGGTGAACCA,0.676
12,AAGGGACAGGGGCCCAAGATAAAGGGACAG,-1.36
13,CTAACCAGCTCTATCAGTCTGGGTCCAGTC,2.82
14,CTCATGGGCCTAAACATTCCCCTTTGTCTA,1.83
15,AGGTCATGCATAGAAGTATGTCTGGGATTT,0.935
16,TTACTCTTAGAGATAATGGGGGAGCCACTG,-0.899
17,TGTATGACCTTTGTTTTATTGTCATGCTGA,3.07
18,AGCACTTCATCCTTATGTAACTGTAACTAT,0.645
19,CTGGTCCCCTGCACAGTCAAAAATTTGTGT,0.926
20,CTCCTTGGAAGTCGCCGTGAGGTTATTTGC,0.914
21,AGAACAGAATCCAGTCTGGTTAGTTTAAGC,-1.29
22,GACAGGATATTTTGAGGGCTCAAAGGTTAC,5.91
23,TCCGAAATAAACTGAGGGGTGGGGACCAGT,-0.954
24,TCAGAAGGAAAGTCTCCCTCCCTTTGATCC,2.04

row,Sequence,binding signal (log2 normalized intensity)
1,TGATCAAGAGGCTCTTCAATGCATTCCTGA,-1.26
2,TTCTTTAAGCTATGTGGTGGAATGGAAAGA,1.1
3,CTGATCCCAGCCCCACGGCTGAGCGGCCTT,0.595
4,AGGCGCTGTGAAGCACATCCTGTTCTAGCT,-1.46
5,GTTATCTATTTGCATTCCATCAGTAGTATT,1.41
6,TTCCTCTGGCATCTGGTCAGGGGTCAAGAA,4.62
7,TGTAAACCTAGGTAGTGGACTCTAAGGCAA,2.37
8,GGACTCTGGAACCATCAGGATTCCAGAGGA,2.36
9,CTGCATTCCAGCCTGGGGCAATAGAGTAAG,-1.41
10,TTATTGAGCACTTTTGGTATGCAAGGCATG,1.22
11,TCCCCCTGCTGGACACCGAGGTCCTGGGGC,2.61
12,GGTCAAAGGGTAAAGATTATGAACTAATTT,1.87
13,TAGAGTCAATACTCCACAAGACCACAAGGT,-1.19
14,TAAGTCACTGGGCTGATGACCTTTGACTGA,7.85
15,TGCCTTGTGTACTCTATCCAGTAGAGGGCA,2.59
16,GTTTCCTGAGTTACAGATAAGCAGAAGGTC,1.64
17,ATTGGGTACAATGTTCACTATTTGAACTTA,4.06
18,GATAAGCAGAAGGTCAGGTGAATCAACGAT,-1.11
19,AGGGCCCGAGGCCTTGAGCATACAAAACCC,-1.36
20,GTGTCAACATGGACTTTGTTGTTTGCCTCT,4.08
21,GAAGTTGCCCGAGCTGCCCTTTATCTCCTC,2.79
22,GTTGCTTCAAAGGGCAAAAGGGCAAAACTG,4.85
23,GCTGGCGGGAGCATAGCAGCGAGGACAACC,-1.2
24,TGATGCATCCTGAGGCAAAATTCCTCGCTA,-1.33
